Results published in PubChem BioAssay AID504706 (National Center for Advancing Translational Sciences (NCATS), 2011).
The campaign covered roughly 320,000 compounds. About 200 (0.062%) were called active. The shares of active, inactive and inconclusive entries below differ from those in the screen. Calls follow the shape of the dose curve; as a rule, active = well fitted activation curve with a large enough effect; inconclusive = small, poorly fitted or top-dose-only effect; inactive = no such curve, though single readings can be large or run the other way. Potencies of inconclusive entries are left out as doubtful fits.

Assay: qHTS assay for re-activators of p53 using a Luc reporter; also: nearly all actives have a fitted effect of over 45% in size; as to activity change, positive = activation: % of control where 0% means no effect
Conditions: H1299 p53-A138V BP100-luciferase reporter, luminescence, 24 h; series mostly up to 92.2 µM; activity change, positive = activation: at the top concentration
In short: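 p53-null H1299 cells stably carrying temperature-sensitive p53-A138V and a BP100-luciferase reporter were pinned with compounds (4-point, 1:5 series) and held 24 hrs at 37 deg C. Luminescence was read 10 min after detection reagent.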
Potency is read from the fitted curve at half-maximal effect; tags tell the direction and shape of the fitted curve.

| Compound | Potency | activity change, positive = activation |
| --- | --- | --- |
| O=C(CCCn1c(SCC(=O)c2ccc(F)cc2)nc2ccccc2c1=O)NCc1ccco1 | inconclusive [activator, single point] |  |
| CCCn1cnc2sc(CC)cc2c1=O | inconclusive [activator, partial curve, poor fit] |  |
| Cc1nnc(SCC(=O)Nc2nsc(-c3ccc(C(C)(C)C)cc3)n2)s1 | inconclusive [activator, partial curve, poor fit] |  |
| O=c1c2ccccc2oc2nc(-c3ccco3)n(-c3ccccc3)c(=O)c12 | inconclusive [activator, partial curve, poor fit] |  |
| COc1ccc(C(=O)COC(=O)Cn2c(C)csc2=O)c(OC)c1 |  | inactive: 12.5% |
| CCOc1ccc(N(CC(=O)Nc2ccc(C)cc2)S(C)(=O)=O)cc1 | inconclusive [activator, single point] |  |
| CCOC(=O)CSc1nc2cc3c(cc2cc1C#N)OCO3 | inconclusive [activator, partial curve, poor fit] |  |
| COc1cccc(-c2ccc3ncnc(N(C)Cc4ccco4)c3c2)c1 | inconclusive [activator, single point] |  |
| CCc1ccc2c(CN3CCN(Cc4ccccc4)CC3)cc(=O)oc2c1 |  | inactive: -3.02% |
| CCN(CC)c1ccc(/C=N/N2CCOCC2)c(O)c1 | inconclusive [activator, partial curve, poor fit] |  |
| Cc1cc(C(=O)N/N=C/c2cccn2C)no1 |  | inactive: 19.8% |
| Cc1ccc(C(=O)CCC2CCCCC2=O)cc1 (stereo not drawn) | inconclusive [activator, full curve, poor fit] |  |
| COc1ccc(N2C(=O)CCC2(C#N)c2ccc(Br)cc2)cc1 (stereo not drawn) |  | inactive: -1.59% |
| Fc1cc(F)c2nc(N3CCCC3)sc2c1 | inconclusive [activator, partial curve, poor fit] |  |
| CC1CCN(C(=O)C2CC(c3ccc(F)cc3)=NO2)CC1 (stereo not drawn) | inconclusive [activator, partial curve, poor fit] |  |
| Cc1ccc(NC(=O)c2cc(NC(=O)CCC(=O)O)ccc2N2CCCCC2)cc1 | inconclusive [activator, full curve, poor fit] |  |
| O=C(O)c1ccc2c(c1)S(=O)(=O)c1cc(Cl)ccc1C2=O | inconclusive [activator, full curve, poor fit] |  |
| COCCn1c(SCC(=O)Nc2ccc(N3CCOCC3)cc2)nc2ccccc21 | inconclusive [activator, partial curve, poor fit] |  |
| COc1ccc(CCNC(=O)c2ccc(-c3cccc([N+](=O)[O-])c3)o2)cc1OC |  | inactive: -7.3% |
| COc1ccc(/C=C(/NC(=O)c2ccc([N+](=O)[O-])cc2)C(=O)NCCCN(C)C)cc1 |  | inactive: 2.7% |
| N#Cc1cn(-c2ccccc2)nc1-c1ccco1 | inconclusive [activator, partial curve, poor fit] |  |
| CC(C)CCn1cnc2c(sc3nc4c(cc32)CSC(C)(C)C4)c1=O | inconclusive [activator, full curve, poor fit] |  |

| Compound | Potency | activity change, positive = activation |
| --- | --- | --- |
| CC(C)CN1C(=O)c2ccc(C(=O)Nc3ccccn3)cc2C1=O | inconclusive [activator, partial curve, poor fit] |  |
| CCn1c(SCC(=O)Nc2ccc(-c3nc4ccc(C)cc4s3)cc2)nnc1-c1ccccc1 | inconclusive [activator, partial curve, poor fit] |  |
| O=C(Nc1cnc2ccccc2c1)c1ccncc1 |  | inactive: 25.9% |
| COc1ccc(S(=O)(=O)NCC2CC3C=CC2C3)cc1OC (stereo not drawn) |  | inactive: 24.5% |
| CC[n+]1c(-c2ccc(C)cc2)csc1Nc1c(C)n(C)n(-c2ccccc2)c1=O |  | inactive: -12.6% |
| O=C(O)c1ccccc1C(=O)Nc1ccccn1 | inconclusive [activator, partial curve, poor fit] |  |
| Cc1ccc(N=Nc2c(N)nn(-c3ccccc3)c2N)cc1 | inconclusive [activator, partial curve, poor fit] |  |
| O=C(CCc1nc2ccccc2s1)OCC(=O)c1ccccc1 | inconclusive [activator, partial curve, poor fit] |  |
| COc1cccc(/C=N/Nc2snc(SC)c2C#N)c1O | inconclusive [activator, partial curve, poor fit] |  |
| CCCCNC(=O)c1nnn(-c2ccccc2)c1N | inconclusive [activator, partial curve, poor fit] |  |
| Cc1ccc2nc(-c3ccc(N4C(=NC(=O)CCC(=O)O)SC5CS(=O)(=O)CC54)cc3)sc2c1 (stereo not drawn) | inconclusive [activator, full curve, poor fit] |  |
| O=C(NCc1ccc(F)cc1)C1CCCN1S(=O)(=O)c1cccc2nsnc12 (stereo not drawn) |  | inactive: -6.46% |
| N/C(=N\OC(=O)c1ccc([N+](=O)[O-])cc1)c1cccnc1 | inconclusive [activator, partial curve] |  |
| COc1ccccc1OCc1cc(C(=O)N2CCCC(OCc3cccnc3)C2)no1 (stereo not drawn) |  | inactive: 28.5% |
| Cc1cccnc1NC(=O)Cn1nc(-c2ccccc2)oc1=S | inconclusive [activator, full curve, poor fit] |  |
| CC(=O)N1CN(Cc2ccccn2)Cc2c1sc1c2CCCC1 | inconclusive [activator, single point] |  |
| CCCc1ccc2oc(C(=O)NCCCN3CCOCC3)c(C)c2c1 | inconclusive [activator, partial curve, poor fit] |  |
| CC(=O)NC(CCS(C)(=O)=O)C(=O)Nc1ccccc1C (stereo not drawn) | inconclusive [activator, partial curve, poor fit] |  |
| COc1ccc(/C=C/c2ccc3ccccc3[n+]2C)cc1OC | inconclusive [activator, full curve, poor fit] |  |
| O=C(O)c1nn(CC(=O)N2CCCCCC2)c(=O)c2ccccc12 |  | inactive: -2.37% |
| CCOc1ccc(C(=O)O/N=C(\N)c2ccccn2)cc1OCC | inconclusive [activator, partial curve, poor fit] |  |
